Paper PMC6451091
This is one part of the list. For part of these data: At the low end of the ranking the order means little. For part of these data: The protein was read in a cell extract, so binding may be indirect.

Key:
Settings in all cases: 20 mM HEPES pH 7.9, 100 mM NaCl, 1 mM DTT, 0.2 mg/mL BSA, 0.02% Triton X-100, 2% milk, 0.4 mg/mL salmon testes DNA; 1 h; temperature not stated; high values mean tight binding; double strand, one strand shown; sequences stand for … in GCCTAGCAC…GTGCTAGGTCTTGATTCGCTTGACGCTGCTG
PU.1 (IVT) = PU.1 (IVT) (UniProt P17947); assay: protein-binding microarray (PBM)
[1] = molecular target: PU.1 (endogenous, THP-1 nuclear extract) (UniProt P17947); assay: nuclear extract protein-binding microarray (nextPBM)
[2] = molecular target: T1, FLI1 (endogenous, THP-1 nuclear extract) (UniProt Q01543); assay: as above
T1 sequence: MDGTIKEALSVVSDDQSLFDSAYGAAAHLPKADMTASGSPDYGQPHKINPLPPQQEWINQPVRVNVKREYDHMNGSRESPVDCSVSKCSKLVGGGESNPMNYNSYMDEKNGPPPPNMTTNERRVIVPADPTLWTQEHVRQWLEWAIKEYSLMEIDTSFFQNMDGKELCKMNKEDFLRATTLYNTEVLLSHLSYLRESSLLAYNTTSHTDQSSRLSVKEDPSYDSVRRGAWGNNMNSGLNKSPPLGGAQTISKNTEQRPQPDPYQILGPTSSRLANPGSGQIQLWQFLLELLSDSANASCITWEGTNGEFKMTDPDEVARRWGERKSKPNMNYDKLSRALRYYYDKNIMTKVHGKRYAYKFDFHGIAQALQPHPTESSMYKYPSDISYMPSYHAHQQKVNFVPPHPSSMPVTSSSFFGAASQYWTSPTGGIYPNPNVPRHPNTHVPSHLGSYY

Sequence | binding signal (PU.1 (IVT)) | binding signal [1] | binding signal [2]
CAAAGAGGGAAGTGACCTTC | 5.06 z-score | 5.25 z-score | 2.07 z-score
GAAATAGGGAAGTCAGGAGG | 6.12 z-score | 6.55 z-score | 2.26 z-score
AAGATGAGGAAGTGCCCTCT | 6.02 z-score | 6.62 z-score | 2.75 z-score
AAAAAGAGGAAGTGGTTGTC | 8.71 z-score | 7.63 z-score | 4.63 z-score
GACAACAGGAAGTCCCATAG | 3.35 z-score | 3.93 z-score | 4.19 z-score
CCAAAGAGGAAGTCTCAAAA | 5.42 z-score | 6.38 z-score | 2.53 z-score
TGTTTGGGGAAGTGAGGCAG | 4.06 z-score | 4.87 z-score | 1.82 z-score
AAAATCAGGAAGTCCCTTAC | 6.01 z-score | 6.54 z-score | 2.98 z-score
AAAAAAAGGAACTGGCTAGC | 4.5 z-score | 3.89 z-score | 1.58 z-score
AAAAAAAGGAAGTGCCTTCA | 6.58 z-score | 6.76 z-score | 3.15 z-score
AGATTCAGGAAGTGCCGTGG | 4.59 z-score | 5.48 z-score | 3.62 z-score
AAAAAGAGGAAGTGAGATGG | 8.88 z-score | 7.85 z-score | 4.29 z-score
TAAATGGGGAAGTGTAGACT | 6.34 z-score | 6.69 z-score | 2.51 z-score
AAAAAGAGGAAGTGATGAGT | 8.92 z-score | 7.55 z-score | 5.07 z-score
CAAAAAGGGAAGTGTCTGCA | 6.22 z-score | 6.6 z-score | 2.55 z-score
CCAAAAAGGAACTGTGCCCC | 1.53 z-score | 1.59 z-score | 0.681 z-score
ACGAAGAGGAAGTAAAAGTG | 5.9 z-score | 6.25 z-score | 3.33 z-score
CAAAAAGGGAATTGGATGCT | 1.78 z-score | 1.27 z-score | 0.744 z-score
TGATAGGGGAAGTGGGAGTT | 4.95 z-score | 5.02 z-score | 2.05 z-score

Sequence | binding signal (PU.1 (IVT)) | binding signal [1] | binding signal [2]
TGAAAGAGGAACTGCAACCA | 5.7 z-score | 6.29 z-score | 2.28 z-score
AAAAAAAGGAACTGGCTCGA | 4.34 z-score | 4.32 z-score | 1.29 z-score
TGGTTGAGGAAGTGGCTGAG | 4.2 z-score | 4.14 z-score | 2.35 z-score
GTGGGGAGGAAGTGGCCCCT | 2.88 z-score | 3.19 z-score | 2.82 z-score
GGTATGAGGAACTGGATTCC | 4.19 z-score | 4.17 z-score | 1.04 z-score
TCCAAGAGGAAGTGGGAGTC | 4.14 z-score | 5.14 z-score | 2.81 z-score
CAAAAAGGGGAGTGGATGCT | -0.32 z-score | -0.239 z-score | 0.139 z-score
AACAGGAGGAAGTGAGATGT | 4.34 z-score | 4.26 z-score | 2.7 z-score
TTAAGAAGGAAGTGGGTTTT | 3.56 z-score | 3.23 z-score | 2.33 z-score
CAAAAGAAGAAGTGCTGGAT | 3.25 z-score | 3.52 z-score | 1.12 z-score
AGAAAGAGGAAGTGATTGAA | 8.32 z-score | 7.41 z-score | 4.54 z-score
CAGCTGAGGAAGTGGGTGGG | 2.45 z-score | 2.61 z-score | 1.95 z-score
AAAAAAAGGAACAGGCTAGA | 2.22 z-score | 2.21 z-score | 0.322 z-score
AATAAGGGGAAGTGAAGGCA | 5.58 z-score | 6.4 z-score | 2.9 z-score
GCAAGGAGGAAGTGCCATGA | 4.49 z-score | 5.27 z-score | 2.65 z-score
TTGAGGAGGAAGTAGAAAGG | 3.94 z-score | 4.7 z-score | 2.35 z-score
AGAAAGAGGAAGTCCTCTCT | 8.3 z-score | 7.49 z-score | 4.05 z-score
CAGAAGGGGAAGTCAGAAGT | 5.1 z-score | 5.46 z-score | 2.33 z-score
AAAAAGAGGAAATGCGTTGC | 6.2 z-score | 6.61 z-score | 3.06 z-score

Sequence | binding signal (PU.1 (IVT)) | binding signal [1] | binding signal [2]
CAAAAGAGGAAGTCAGAGAG | 7.94 z-score | 7.23 z-score | 4.27 z-score
AGGAGAGGGAAGTGAGAGAT | 2.61 z-score | 2.77 z-score | 1.51 z-score
AGAAACGGGAAGTGGAATTG | 7.29 z-score | 7.13 z-score | 3.49 z-score
AGAATGAGGAACTGGGAAAG | 4.85 z-score | 5.85 z-score | 1.42 z-score
TGAATGAGGAACTGCGTTTC | 4.84 z-score | 5.28 z-score | 1.27 z-score
CCAAAGAGGAAGTGGCATCA | 6.51 z-score | 6.81 z-score | 3.65 z-score
GATAAGAGGAAGTCCTCAGT | 6.34 z-score | 6.34 z-score | 2.95 z-score
CAAATGAGGGACTGATGCGG | -0.604 z-score | -0.446 z-score | -0.915 z-score
CGAAAGGGGGAGTGCTAAAC | -0.398 z-score | -0.486 z-score | 0.304 z-score
TGTGGGAGGAAGTGCTTTTG | 4.2 z-score | 4.14 z-score | 2.9 z-score
GAGAAAAGGAAGTGAAGACA | 3.69 z-score | 3.37 z-score | 2.5 z-score
AGAAAGAGGAACTGGTTTGG | 6.71 z-score | 6.85 z-score | 3.03 z-score
CCGATGGGGAAGTGGTGAGC | 4.44 z-score | 4.93 z-score | 1.34 z-score
ACAAAAAGGAACTGTGCCAC | 1.92 z-score | 1.51 z-score | 0.619 z-score
CAAAAAGGGAAGTGGTTGCT | 6.85 z-score | 6.82 z-score | 2.83 z-score
GAAATGAGGAAGTACCTAAA | 8.71 z-score | 7.53 z-score | 4.01 z-score
GGAAAAAGGAAGTGAAAAAA | 5.95 z-score | 5.97 z-score | 3.07 z-score
GGAAAGGGGAACTGGACCCA | 4.62 z-score | 5.43 z-score | 1.55 z-score
ATGATGAGGAAGTAGAATCA | 5.49 z-score | 5.91 z-score | 2.39 z-score
